# Assay results reported in publication PMC9911399, “Two distinct binding modes provide the RNA-binding protein RbFox with extraordinary sequence specificity”.
# Where a chain is given by its changes, count along the chain named. Some of the results follow.
# B1: ACAACUU (DNA:RNA)
# RNA: GGGAGACCGGAAUUCAGAUUGUCCACAACUUUUAAAUCCCGUCGUAGCCACCA
# DNA 1: CAATCTGAATTCCGGTCTCCC
# DNA 2: TGGTGGCTACGACGGGATT
# B2: UGGAACC (DNA:RNA)
# RNA: B1 RNA with A25U, C26G, A27G, C29A, U30C, U31C
# DNA 1: CAATCTGAATTCCGGTCTCCC
# DNA 2: TGGTGGCTACGACGGGATT
# B3: CAUGCUC (DNA:RNA)
# RNA: B1 RNA with A25C, C26A, A27U, A28G, U31C
# DNA 1: CAATCTGAATTCCGGTCTCCC
# DNA 2: TGGTGGCTACGACGGGATT
# B4: UAUAACC (DNA:RNA)
# RNA: B1 RNA with A25U, C26A, A27U, C29A, U30C, U31C
# DNA 1: CAATCTGAATTCCGGTCTCCC
# DNA 2: TGGTGGCTACGACGGGATT
# B5: CCUGGCC (DNA:RNA)
# RNA: B1 RNA with A25C, A27U, A28G, C29G, U30C, U31C
# DNA 1: CAATCTGAATTCCGGTCTCCC
# DNA 2: TGGTGGCTACGACGGGATT
# B6: UGCCCGG (DNA:RNA)
# RNA: B1 RNA with A25U, C26G, A27C, A28C, U30G, U31G
# DNA 1: CAATCTGAATTCCGGTCTCCC
# DNA 2: TGGTGGCTACGACGGGATT
# B7: CCACUUC (DNA:RNA)
# RNA: B1 RNA with A25C, A28C, C29U, U31C
# DNA 1: CAATCTGAATTCCGGTCTCCC
# DNA 2: TGGTGGCTACGACGGGATT
# B8: AUGAUAC (DNA:RNA)
# RNA: B1 RNA with C26U, A27G, C29U, U30A, U31C
# DNA 1: CAATCTGAATTCCGGTCTCCC
# DNA 2: TGGTGGCTACGACGGGATT
# B9: ACGGCCA (DNA:RNA)
# RNA: B1 RNA with A27G, A28G, U30C, U31A
# DNA 1: CAATCTGAATTCCGGTCTCCC
# DNA 2: TGGTGGCTACGACGGGATT
# B10: UCUAAAC (DNA:RNA)
# RNA: B1 RNA with A25U, A27U, C29A, U30A, U31C
# DNA 1: CAATCTGAATTCCGGTCTCCC
# DNA 2: TGGTGGCTACGACGGGATT
# B11: GCCGUUC (DNA:RNA)
# RNA: B1 RNA with A25G, A27C, A28G, C29U, U31C
# DNA 1: CAATCTGAATTCCGGTCTCCC
# DNA 2: TGGTGGCTACGACGGGATT
# B12: UGGUCCC (DNA:RNA)
# RNA: B1 RNA with A25U, C26G, A27G, A28U, U30C, U31C
# DNA 1: CAATCTGAATTCCGGTCTCCC
# DNA 2: TGGTGGCTACGACGGGATT
# B13: AAGUCAC (DNA:RNA)
# RNA: B1 RNA with C26A, A27G, A28U, U30A, U31C
# DNA 1: CAATCTGAATTCCGGTCTCCC
# DNA 2: TGGTGGCTACGACGGGATT
# B14: AAGUCUG (DNA:RNA)
# RNA: B1 RNA with C26A, A27G, A28U, U31G
# DNA 1: CAATCTGAATTCCGGTCTCCC
# DNA 2: TGGTGGCTACGACGGGATT
# B15: CCUCUUG (DNA:RNA)
# RNA: B1 RNA with A25C, A27U, A28C, C29U, U31G
# DNA 1: CAATCTGAATTCCGGTCTCCC
# DNA 2: TGGTGGCTACGACGGGATT
# B16: AGAUCGC (DNA:RNA)
# RNA: B1 RNA with C26G, A28U, U30G, U31C
# DNA 1: CAATCTGAATTCCGGTCTCCC
# DNA 2: TGGTGGCTACGACGGGATT
# B17: UAUGAGC (DNA:RNA)
# RNA: GGGAGACCGGAAUUCAGAUUGUCCUAUGAGCUUAAAUCCCGUCGUAGCCACCA
# DNA 1: CAATCTGAATTCCGGTCTCCC
# DNA 2: TGGTGGCTACGACGGGATT
# B18: AAUACAU (DNA:RNA)
# RNA: B1 RNA with C26A, A27U, U30A
# DNA 1: CAATCTGAATTCCGGTCTCCC
# DNA 2: TGGTGGCTACGACGGGATT
# B19: GUAAGUC (DNA:RNA)
# RNA: B1 RNA with A25G, C26U, C29G, U31C
# DNA 1: CAATCTGAATTCCGGTCTCCC
# DNA 2: TGGTGGCTACGACGGGATT
# B20: UAAUGAA (DNA:RNA)
# RNA: B17 RNA with U27A, G28U, A29G, G30A, C31A
# DNA 1: CAATCTGAATTCCGGTCTCCC
# DNA 2: TGGTGGCTACGACGGGATT
# Biological target: T1, RBFOX1 RRM RbFoxmut (Fox-RRM*) (Homo sapiens, UniProt Q9NWB1 109-208, R118D;E147R;N151S;E152T)
# T1 sequence: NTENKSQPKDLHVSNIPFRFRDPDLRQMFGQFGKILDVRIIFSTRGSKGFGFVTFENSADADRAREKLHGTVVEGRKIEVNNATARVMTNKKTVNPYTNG
# Experiment: EMSA; HiTS-Eq, 1 nM pool, 10 min; buffer printed only for the single-RNA assays: 10 mM Tris pH 7.5, 150 mM NaCl, 3.4 mM EDTA, 0.001% NP-40, 30 C
# Conditions: tags: His6 N-terminal (pET28a); label: 5' 32P
# In short: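 Relative association constants, normalised to the cognate motif, were derived by comparing read counts of each RNA species with those of the control reaction. The RNA sequenced was the free fraction, separated by 8% native PAGE after a 10 min equilibration in 50 µL of 1 nM 5′-radiolabelled RNA (7 randomized nucleotides) with increasing concentrations of purified wild-type or mutant RbFox RRM.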
row,Binder,binding signal
1,B1,0.0702 KA relative to UGCAUGU
2,B2,0.196 KA relative to UGCAUGU
3,B3,0.0741 KA relative to UGCAUGU
4,B4,0.0973 KA relative to UGCAUGU
5,B5,0.274 KA relative to UGCAUGU
6,B6,0.112 KA relative to UGCAUGU
7,B7,0.0839 KA relative to UGCAUGU
8,B8,0.139 KA relative to UGCAUGU
9,B9,0.089 KA relative to UGCAUGU
10,B10,0.0642 KA relative to UGCAUGU
11,B11,0.051 KA relative to UGCAUGU
12,B12,0.145 KA relative to UGCAUGU
13,B13,0.0691 KA relative to UGCAUGU
14,B14,0.0685 KA relative to UGCAUGU
15,B15,0.102 KA relative to UGCAUGU
16,B16,0.079 KA relative to UGCAUGU
17,B17,0.109 KA relative to UGCAUGU
18,B18,0.0922 KA relative to UGCAUGU
19,B19,0.0771 KA relative to UGCAUGU
20,B20,0.0815 KA relative to UGCAUGU
